Here are results for 20 molecules from paper PMC9911399, “Two distinct binding modes provide the RNA-binding protein RbFox with extraordinary sequence specificity”.

Changes are numbered by the printed parent chain; changes in the protein carry UniProt numbers. This is one part of the list.

T1: RBFOX1 RRM RbFoxmut (Fox-RRM*) (Homo sapiens, UniProt Q9NWB1 109-208, R118D;E147R;N151S;E152T)
T1 sequence: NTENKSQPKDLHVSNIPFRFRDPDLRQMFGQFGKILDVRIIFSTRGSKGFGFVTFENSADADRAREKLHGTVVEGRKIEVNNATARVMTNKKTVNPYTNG

B1: CCUGUCU (DNA:RNA)
RNA: GGGAGACCGGAAUUCAGAUUGUCCCCUGUCUUUAAAUCCCGUCGUAGCCACCA
DNA 1: CAATCTGAATTCCGGTCTCCC
DNA 2: TGGTGGCTACGACGGGATT
B2: GUUUCUU (DNA:RNA)
RNA: B1 RNA with C25G, C26U, G28U, U29C, C30U
DNA 1: CAATCTGAATTCCGGTCTCCC
DNA 2: TGGTGGCTACGACGGGATT
B3: UUUCGAA (DNA:RNA)
RNA: B1 RNA with C25U, C26U, G28C, U29G, C30A, U31A
DNA 1: CAATCTGAATTCCGGTCTCCC
DNA 2: TGGTGGCTACGACGGGATT
B4: UGCCAAC (DNA:RNA)
RNA: GGGAGACCGGAAUUCAGAUUGUCCUGCCAACUUAAAUCCCGUCGUAGCCACCA
DNA 1: CAATCTGAATTCCGGTCTCCC
DNA 2: TGGTGGCTACGACGGGATT
B5: AUUUCCC (DNA:RNA)
RNA: B1 RNA with C25A, C26U, G28U, U29C, U31C
DNA 1: CAATCTGAATTCCGGTCTCCC
DNA 2: TGGTGGCTACGACGGGATT
B6: CCGCACA (DNA:RNA)
RNA: B1 RNA with U27G, G28C, U29A, U31A
DNA 1: CAATCTGAATTCCGGTCTCCC
DNA 2: TGGTGGCTACGACGGGATT
B7: CUACCAA (DNA:RNA)
RNA: B4 RNA with U25C, G26U, C27A, A29C, C31A
DNA 1: CAATCTGAATTCCGGTCTCCC
DNA 2: TGGTGGCTACGACGGGATT
B8: UACGUUC (DNA:RNA)
RNA: B4 RNA with G26A, C28G, A29U, A30U
DNA 1: CAATCTGAATTCCGGTCTCCC
DNA 2: TGGTGGCTACGACGGGATT
B9: CCGCUCC (DNA:RNA)
RNA: B1 RNA with U27G, G28C, U31C
DNA 1: CAATCTGAATTCCGGTCTCCC
DNA 2: TGGTGGCTACGACGGGATT
B10: GCCAGUC (DNA:RNA)
RNA: B4 RNA with U25G, G26C, C28A, A29G, A30U
DNA 1: CAATCTGAATTCCGGTCTCCC
DNA 2: TGGTGGCTACGACGGGATT
B11: CCUAUCG (DNA:RNA)
RNA: B1 RNA with G28A, U31G
DNA 1: CAATCTGAATTCCGGTCTCCC
DNA 2: TGGTGGCTACGACGGGATT
B12: ACGCGUA (DNA:RNA)
RNA: B1 RNA with C25A, U27G, G28C, U29G, C30U, U31A
DNA 1: CAATCTGAATTCCGGTCTCCC
DNA 2: TGGTGGCTACGACGGGATT
B13: CAGCGAG (DNA:RNA)
RNA: B4 RNA with U25C, G26A, C27G, A29G, C31G
DNA 1: CAATCTGAATTCCGGTCTCCC
DNA 2: TGGTGGCTACGACGGGATT
B14: AUUGCUG (DNA:RNA)
RNA: B1 RNA with C25A, C26U, U29C, C30U, U31G
DNA 1: CAATCTGAATTCCGGTCTCCC
DNA 2: TGGTGGCTACGACGGGATT
B15: GCUCAUC (DNA:RNA)
RNA: B4 RNA with U25G, G26C, C27U, A30U
DNA 1: CAATCTGAATTCCGGTCTCCC
DNA 2: TGGTGGCTACGACGGGATT
B16: CUUGAGG (DNA:RNA)
RNA: B1 RNA with C26U, U29A, C30G, U31G
DNA 1: CAATCTGAATTCCGGTCTCCC
DNA 2: TGGTGGCTACGACGGGATT
B17: CCCGACA (DNA:RNA)
RNA: B1 RNA with U27C, U29A, U31A
DNA 1: CAATCTGAATTCCGGTCTCCC
DNA 2: TGGTGGCTACGACGGGATT
B18: UAUGGAU (DNA:RNA)
RNA: B1 RNA with C25U, C26A, U29G, C30A
DNA 1: CAATCTGAATTCCGGTCTCCC
DNA 2: TGGTGGCTACGACGGGATT
B19: UGGGUCA (DNA:RNA)
RNA: B1 RNA with C25U, C26G, U27G, U31A
DNA 1: CAATCTGAATTCCGGTCTCCC
DNA 2: TGGTGGCTACGACGGGATT
B20: AUCUGUA (DNA:RNA)
RNA: B4 RNA with U25A, G26U, C28U, A29G, A30U, C31A
DNA 1: CAATCTGAATTCCGGTCTCCC
DNA 2: TGGTGGCTACGACGGGATT

For the assay, the target named is T1, RBFOX1 RRM RbFoxmut (Fox-RRM*). Briefly: EMSA; HiTS-Eq, 1 nM pool, 10 min; buffer printed only for the single-RNA assays: 10 mM Tris pH 7.5, 150 mM NaCl, 3.4 mM EDTA, 0.001% NP-40, 30 C. Particulars: tags: His6 N-terminal (pET28a); label: 5' 32P. In short, it runs like this:
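Purified wild-type or mutant RbFox RRM at increasing concentrations was equilibrated with 1 nM of 5′-radiolabelled RNA carrying 7 randomized nucleotides for 10 min in 50 µL. Unbound RNA was separated by 8% native PAGE and sequenced. Relative association constants came from read-count changes of each RNA species compared with the control reaction, normalised to the cognate motif.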
Turning to B1, the binding signal was 0.104 KA relative to UGCAUGU.

Regarding B2, the binding signal was 0.115 KA relative to UGCAUGU.

With B3, the binding signal was 0.0789 KA relative to UGCAUGU. Then B4, with 0.0569 KA relative to UGCAUGU. Then B5, with 0.0481 KA relative to UGCAUGU. Then B6, with 0.0974 KA relative to UGCAUGU. With B7, the binding signal is 0.0752 KA relative to UGCAUGU. Then B8, with 0.087 KA relative to UGCAUGU. Then B9, with 0.0543 KA relative to UGCAUGU.

Turning to B10, the binding signal is 0.063 KA relative to UGCAUGU.

As for B11, the binding signal was 0.109 KA relative to UGCAUGU.

With B12, the binding signal is 0.183 KA relative to UGCAUGU. Next, B13: 0.135 KA relative to UGCAUGU; B14: 0.117 KA relative to UGCAUGU; B15: 0.06 KA relative to UGCAUGU. Then B16, with 0.0818 KA relative to UGCAUGU; and B17, with 0.0737 KA relative to UGCAUGU.

B18: the binding signal was 0.0769 KA relative to UGCAUGU. Turning to B19, the binding signal is 0.15 KA relative to UGCAUGU. Next, B20: 0.175 KA relative to UGCAUGU.
